The source of these data is ChEMBL document CHEMBL4888484, “Replenishing the malaria drug discovery pipeline: Screening and hit evaluation of the MMV Hit Generation Library 1 (HGL1) against asexual blood stage Plasmodium falciparum ,using a nano luciferase reporter read-out” (2022).

In general, % Inhibition refers to the relative decrease from the control value, in per cent.

About 540 (0.36%) of roughly 150,000 compounds showed an effect of 50% or more. Some of the results follow.

For the experiment, the system named is Plasmodium falciparum. As to the kind of experiment: Primary screen in NF54 nanoGlo assay, in single point, at 2uM, 72h; a lower Z score goes with more inhibition. As to conditions: timepoint 72 hour. Type of experiment: functional, Erythrocyte.
As for `O=S(=O)(c1ccc(-c2noc(-c3ccccn3)n2)cc1)N1CCOCC1`, the “% Inhibition” value is reported as -3% and the Z score is 0.56.

For the compound `CNc1ncc(-c2cc(C)co2)nc1C`, the “% Inhibition” value is listed as -9% and the Z score is recorded as 0.93.

For `CCCc1cc(N2CCC(Cc3ccccc3)CC2)n2nc(C)c(-c3ccccc3)c2n1`, the “% Inhibition” value was -1% and the Z score was 0.21.

With `CN(C(=O)N1CC2(CCOC2)C1)C1CCCCC1`, the “% Inhibition” value is on record as -6% and the Z score amounted to 1.09.

`O=C(NCc1ccccn1)C1=COCCO1`: the “% Inhibition” value is 0% and the Z score is recorded as -0.02.

With `O=C(CC[C@H]1CCCO1)Nc1nc2ccccc2s1`, the “% Inhibition” value is reported as -6% and the Z score is reported as 1.25.

`Cc1c([C@H](C)NC(=O)c2ccc[nH]2)cnn1-c1cccc2ccccc12`: the “% Inhibition” value is -9% and the Z score is 1.04.

Take `CC(=O)N1CCC(c2nc(CCc3ccccc3)nn2-c2ccc(C)cc2)CC1`: the “% Inhibition” value is on record as -9% and the Z score was found to be 1.84.

Turning to `c1cncc(-c2nnc(CN3CCCC[C@H]3c3nccs3)o2)c1`, the “% Inhibition” value is listed as -12% and the Z score is recorded as 1.61.

Take `CN(C)c1ccccc1N(C)CC[C@H]1CCOC1=O`: the “% Inhibition” value is recorded as 0% and the Z score is listed as -0.03.

In the case of `O=S(=O)(c1cccc(Br)c1)N1CCN(CCc2ccccn2)CC1`, the “% Inhibition” value is recorded as -10% and the Z score is recorded as 1.31.

Regarding `COC(=O)C1CC(O)CN1Cc1cnn(Cc2ccccc2)c1` (centres undefined), the “% Inhibition” value is recorded as -10% and the Z score was found to be 1.36.

On to `Cc1cc(NS(=O)(=O)c2cnccc2C)n(C)n1`, for which the “% Inhibition” value is listed as -10% and the Z score was found to be 0.82.

As to `COc1nsc(OC)c1C(=O)NCCOCC(F)(F)F`, the “% Inhibition” value worked out at 5% and the Z score was -0.78.

For the compound `COC1(C)CN(c2nc(C)nc(C)c2F)C1`, the “% Inhibition” value is recorded as -4% and the Z score is given as 0.74.

For `Cc1c(-c2cc(-c3cnn(C)c3C)n(-c3cccc(Cl)c3)n2)cnn1C`, the “% Inhibition” value came out at 33% and the Z score is reported as -3.73.

Consider `Cc1csc2nc(CNc3ccccc3-c3ccccc3)cc(=O)n12`, for which the “% Inhibition” value was found to be 10% and the Z score is -1.14.

As to `O=C(c1cc(-c2cc(NC3CCCC3)nc3[nH]ccc23)c[nH]1)N1CCOCC1`, the “% Inhibition” value is 2% and the Z score is given as -0.25.

`CN(C)CCCNCc1ccccc1F`: the “% Inhibition” value is listed as 31% and the Z score is listed as -4.15.

`CCC[C@H](C)NS(=O)(=O)c1c(C2OCCO2)cnn1C`: the “% Inhibition” value is 10% and the Z score is -1.85.

With `Cc1cc(=O)c2cccc(C(=O)N3CCNC(=O)[C@@H]3CCO)c2[nH]1`, the “% Inhibition” value is recorded as -3% and the Z score worked out at 0.48.

Take `COC(=O)c1cc(OCC(=O)NC2CCCCC2)c2cc(F)ccc2n1`: the “% Inhibition” value is -11% and the Z score is listed as 1.82.

As for `CC(C)(O)CCc1ccc(C(=O)N2C[C@@H]3[C@H](C2)[C@H]2CC[C@@H]3O2)cc1`, the “% Inhibition” value is recorded as 10% and the Z score is recorded as -1.35.

As for `Cc1noc(C2CCCN(C(=O)C3CC3c3ccccc3F)C2)n1` (centres undefined), the “% Inhibition” value turned out to be 0% and the Z score is -0.01.

For `C=CCc1c(NC(C)=O)cccc1OC`, the “% Inhibition” value is recorded as -38% and the Z score is given as 4.5.

For the compound `COc1ccc(-c2nn3c(N4CCN(CC=Cc5ccccc5)CC4)cc(C)nc3c2C)cc1OC`, the “% Inhibition” value is 72% and the Z score was -3.65.

Consider `Cc1cc2c(cc1S(=O)(=O)N1CCOCC1)Oc1ncccc1C(=O)N2`, for which the “% Inhibition” value is listed as -8% and the Z score is listed as 1.17.

As for `C[C@H](NC(=O)Cc1cc(-c2ccco2)on1)c1ccccc1`, the “% Inhibition” value was -16% and the Z score amounted to 1.91.

On to `Cc1cnn(C2CCCC2)c1NC(=O)NCCc1ncnn1C`, for which the “% Inhibition” value worked out at 1% and the Z score was -0.26.

As for `Cc1ccc(C(=O)NC(C(=O)N(C)C)=C(Nc2ccccc2)Nc2ccccc2)cc1`, the “% Inhibition” value is listed as -3% and the Z score is 0.62.

Consider `CC1CCC(COC(=O)c2ccc3nccnc3c2)O1` (centres undefined), for which the “% Inhibition” value is recorded as -6% and the Z score stood at 1.11.

Consider `CCCCNC(=O)c1cncc(N(C)S(=O)(=O)c2ccc(C)cc2)c1`, for which the “% Inhibition” value was -10% and the Z score was found to be 1.89.

For the compound `Cc1ccc(-c2nccc(Oc3cccc(C(=O)Nc4ccc(Br)cc4)c3)n2)cc1`, the “% Inhibition” value was -2% and the Z score was 0.31.

On to `CCC[C@H](C)NC(=O)COC(=O)c1nccnc1N`, for which the “% Inhibition” value is given as -5% and the Z score stood at 0.98.

Take `CCc1ccc([C@@H]2CC(=O)Nc3c2c(C)nn3-c2nc(C)cc(C)n2)s1`: the “% Inhibition” value is given as -13% and the Z score was 1.89.

Take `COC(=O)c1ccc2c(c1)N(C(=O)c1cc(C)ncn1)CCC2`: the “% Inhibition” value is listed as -13% and the Z score was 1.32.

In the case of `Cc1nc(CNCC2(CC(C)C)CCC2)n(C)c1C`, the “% Inhibition” value was determined as 5% and the Z score is on record as -0.78.

As to `CCc1nc2ccccc2c(=O)n1NC(=O)c1c(O)nc2ccccc2c1O`, the “% Inhibition” value is reported as -19% and the Z score turned out to be 2.88.

Take `NC(=O)N1CCC(N[C@H]2CCCCc3ccc(Cl)cc32)CC1`: the “% Inhibition” value was 3% and the Z score is on record as -0.46.

On to `COCCOc1ncccc1CNCc1ccc2cn[nH]c2c1`, for which the “% Inhibition” value is recorded as -37% and the Z score came out at 4.36.

As to `Cc1cc(O)c2cc(C(=O)NCc3cccnc3)ccc2n1`, the “% Inhibition” value worked out at 6% and the Z score is given as -0.73.

On to `Cc1nc(C)c(C(=O)N[C@@H]2C[C@H]3OCC[C@@H]23)o1`, for which the “% Inhibition” value was -12% and the Z score amounted to 1.85.

For the compound `CCc1cc(NC(=O)c2ocnc2C2CC2)n(C)n1`, the “% Inhibition” value is reported as -8% and the Z score stood at 1.52.

With `O=C1[C@H]2CN(Cc3cccc(F)c3)C[C@H]2C(=O)N1Cc1ccc2c(c1)OCO2`, the “% Inhibition” value is -4% and the Z score was determined as 0.51.

Regarding `COc1ccc(OC)c([C@H](C)NC(C)=O)c1`, the “% Inhibition” value is reported as -5% and the Z score came out at 0.73.

Turning to `O=C(Nc1ccc(C(F)(F)F)cc1)N1CCc2nc(Cc3cccc(F)c3)nc(N3CCOCC3)c2C1`, the “% Inhibition” value stood at 2% and the Z score was -0.28.

On to `O=C(C[C@H]1COCCN1C(=O)N1CCc2ccccc21)c1ccco1`, for which the “% Inhibition” value was 5% and the Z score was -0.58.

In the case of `CN(C)S(=O)(=O)Nc1ccccc1C(N)=O`, the “% Inhibition” value is given as -8% and the Z score was determined as 1.52.

Turning to `N[C@](CO)(c1ccccc1)C(F)(F)F`, the “% Inhibition” value came to 14% and the Z score was -1.38.

On to `N#CCCN(CCC(F)(F)F)C(=O)c1ccccc1O`, for which the “% Inhibition” value is 5% and the Z score is listed as -0.41.

Turning to `CN(C)C(=O)c1csc(C(C)(C)C)n1`, the “% Inhibition” value was found to be 2% and the Z score was -0.3.

On to `O=C(Nc1ncccc1O)C1CCCC(C(=O)Nc2ncccc2O)C1` (centres undefined), for which the “% Inhibition” value was 0% and the Z score was 0.02.

Take `CCOc1ccc(Cn2c(=O)c3sccc3n(CC(=O)NCc3ccccc3)c2=O)cc1`: the “% Inhibition” value is -5% and the Z score is given as 0.7.

`Cc1ccnc(OCC(=O)NC(C)C)n1`: the “% Inhibition” value was -5% and the Z score is reported as 0.92.

Take `CC(C)c1nnc(Cn2ncn(C)c2=O)s1`: the “% Inhibition” value is on record as -10% and the Z score is 1.36.

Take `Nc1nc(N2CCC(n3cc(C4CCCC4)nn3)CC2)c2cn[nH]c2n1`: the “% Inhibition” value was -5% and the Z score is on record as 0.98.

Take `CN(C)CC(=O)N1CCN(C(=O)CC2CCCCC2)[C@@H]2CS(=O)(=O)C[C@@H]21`: the “% Inhibition” value is reported as -2% and the Z score stood at 0.27.
